Experimental data as given in US20250002564A1 (HOSPITAL FOR SICK CHILDREN, published 2025).
Several values for one entry are separate records, joined by “and”; a condition that tells them apart may be missing. Equal values may be shown once.

B1: MB 158 (other)
chain 1: DIQMTQSPSSLSASVGDRVTITCRASQSISRYLNWYQQKPGKAPKLLIYDASNLESGVPSRFSGSGSGTDFTLTISSLQPEDFATYYCQQANSFPLTFGGGTKVDIKRTVAAPSVFIFPPSDEQLKSGTASVVCLLNNFYPREAKVQWKVDNALQSGNSQESVTEQDSKDSTYSLSSTLTLSKADYEKHKVYACEVTHQGLSSPVTKSFNRGECGGGGSGGGGSGGGGSGGGGSGGGGSGGGGSGGGGSGGGGSGGGGSGGGGSGGGGSGGGGSGGGGSGGGGSQVQLVQSGAEVKKPGASVKVSCKASGYTFTGYYMHWVRQAPGQGLEWMGWINPLNGGTNFAPKFQGRVTMTRDTSTSTVYMELSSLRSEDTAVYYCARDPGGSYSNDAFDIWGQGTLVTVSSASTKGPSVFPLAPSSKSTSGGTAALGCLVKDYFPEPVTVSWNSGALTSGVHTFPAVLQSSGLYSLSSVVTVPSSSLGTQTYICNVNHKPSNTKVDKKVEPKSCGGGGSGGGGSGGGGSGGGGSGGGGSGG[about 200 residues omitted]
chain 2: [human IgG1 Fc omitted]GGGGSGGGGSGGGGSGGGGSGGGGSGGGGSGGGGSGGGGSGGGGSGGGGSGGGGSGGGGSGGGGSGGGGS[human IgG1 Fc omitted]GGGGSGGGGSGGGGSGGGGSGGGGSGGSSQIRQNYSTDVEAAVNSLVNLYLQASYTYLSLGFYFDRDDVALEGVSHFFRELAEEKREGYERLLKMQNQRGGRALFQDIKKPAEDEW
chain 3: DIQMTQSPSSLSASVGDRVTITCRASQSISRYLNWYQQKPGKAPKLLIYDASNLESGVPSRFSGSGSGTDFTLTISSLQPEDFATYYCQQANSFPLTFGGGTKVDIKRTVAAPSVFIFPPSDEQLKSGTASVVCLLNNFYPREAKVQWKVDNALQSGNSQESVTEQDSKDSTYSLSSTLTLSKADYEKHKVYACEVTHQGLSSPVTKSFNRGECGGGGSGGGGSGGGGSGGGGSGGGGSGGGGSGGGGSGGGGSGGGGSGGGGSGGGGSGGGGSGGGGSGGGGSQVQLVQSGAEVKKPGASVKVSCKASGYTFTGYYMHWVRQAPGQGLEWMGWINPLNGGTNFAPKFQGRVTMTRDTSTSTVYMELSSLRSEDTAVYYCARDPGGSYSNDAFDIWGQGTLVTVSSASTKGPSVFPLAPSSKSTSGGTAALGCLVKDYFPEPVTVSWNSGALTSGVHTFPAVLQSSGLYSLSSVVTVPSSSLGTQTYICNVNHKPSNTKVDKKVEPKSCGGGGSGGGGSGGGGSGGGGSGGGGSGGGKTPDAMKAAMALEKKLNQALLDLHALGSARTDPHLCDFLETHFLDEEVKLIKKMGDHLTNLHRLGGPEAGLGEYLFERLTLRHD
B2: MB 254 (other)
chain 1: DIQMTQSPSSLSASVGDRVTITCRASQGISSYLAWYQQKPGKAPKLLIYDASSLQIGVPSRFSGSGSGTDFTLTISSLQPEDFATYYCLQSYSTPPWTFGQGTKVEIKRTVAAPSVFIFPPSDEQLKSGTASVVCLLNNFYPREAKVQWKVDNALQSGNSQESVTEQDSKDSTYSLSSTLTLSKADYEKHKVYACEVTHQGLSSPVTKSFNRGECGGGGSGGGGSGGGGSGGGGSGGGGSGGGGSGGGGSGGGGSGGGGSGGGGSGGGGSGGGGSGGGGSGGGGSEVQLLESGGGLVQPGGSLRLSCAASGFTFSSSAMHWVRQAPGKGLEWVSAIGTGGDTYYADSVKGRFTISRDNSKNTLYLQMNSLRAEDTAVYYCAREGDGYNFYFDYWGQGTLVTVSSASTKGPSVFPLAPSSKSTSGGTAALGCLVKDYFPEPVTVSWNSGALTSGVHTFPAVLQSSGLYSLSSVVTVPSSSLGTQTYICNVNHKPSNTKVDKKVEPKSCGGGGSGGGGSGGGGSGGGGSGGGGSGG[about 200 residues omitted]
chain 2: B1 chain 2
chain 3: DIQMTQSPSSLSASVGDRVTITCRASQGISSYLAWYQQKPGKAPKLLIYDASSLQIGVPSRFSGSGSGTDFTLTISSLQPEDFATYYCLQSYSTPPWTFGQGTKVEIKRTVAAPSVFIFPPSDEQLKSGTASVVCLLNNFYPREAKVQWKVDNALQSGNSQESVTEQDSKDSTYSLSSTLTLSKADYEKHKVYACEVTHQGLSSPVTKSFNRGECGGGGSGGGGSGGGGSGGGGSGGGGSGGGGSGGGGSGGGGSGGGGSGGGGSGGGGSGGGGSGGGGSGGGGSEVQLLESGGGLVQPGGSLRLSCAASGFTFSSSAMHWVRQAPGKGLEWVSAIGTGGDTYYADSVKGRFTISRDNSKNTLYLQMNSLRAEDTAVYYCAREGDGYNFYFDYWGQGTLVTVSSASTKGPSVFPLAPSSKSTSGGTAALGCLVKDYFPEPVTVSWNSGALTSGVHTFPAVLQSSGLYSLSSVVTVPSSSLGTQTYICNVNHKPSNTKVDKKVEPKSCGGGGSGGGGSGGGGSGGGGSGGGGSGGGKTPDAMKAAMALEKKLNQALLDLHALGSARTDPHLCDFLETHFLDEEVKLIKKMGDHLTNLHRLGGPEAGLGEYLFERLTLRHD
B3: MB 180 (other)
chain 1: DIVMTQSPLSLPVTPGEPASISCRSSQSLLHSNGYNYLDWYLQKPGQSPQLLIYAASSLQSGVPDRFSGSGSGTDFTLKISRVEAEDVGVYYCQQYYSSPYTFGQGTKLEIKRTVAAPSVFIFPPSDEQLKSGTASVVCLLNNFYPREAKVQWKVDNALQSGNSQESVTEQDSKDSTYSLSSTLTLSKADYEKHKVYACEVTHQGLSSPVTKSFNRGECGGGGSGGGGSGGGGSGGGGSGGGGSGGGGSGGGGSGGGGSGGGGSGGGGSGGGGSGGGGSGGGGSGGGGSQVQLVQSGAEVKKPGSSVKVSCKASGYTFTSYAMHWVRQAPGQGLEWMGRISPRSGGTKYAQRFQGRVTITADESTSTAYMELSSLRSEDTAVYYCAREAVAGTHPQAGDFDLWGRGTLVTVSSASTKGPSVFPLAPSSKSTSGGTAALGCLVKDYFPEPVTVSWNSGALTSGVHTFPAVLQSSGLYSLSSVVTVPSSSLGTQTYICNVNHKPSNTKVDKKVEPKSCGGGGSGGGGSGGGGSGGGGSGGGGSGG[about 200 residues omitted]
chain 2: B1 chain 2
chain 3: DIVMTQSPLSLPVTPGEPASISCRSSQSLLHSNGYNYLDWYLQKPGQSPQLLIYAASSLQSGVPDRFSGSGSGTDFTLKISRVEAEDVGVYYCQQYYSSPYTFGQGTKLEIKRTVAAPSVFIFPPSDEQLKSGTASVVCLLNNFYPREAKVQWKVDNALQSGNSQESVTEQDSKDSTYSLSSTLTLSKADYEKHKVYACEVTHQGLSSPVTKSFNRGECGGGGSGGGGSGGGGSGGGGSGGGGSGGGGSGGGGSGGGGSGGGGSGGGGSGGGGSGGGGSGGGGSGGGGSQVQLVQSGAEVKKPGSSVKVSCKASGYTFTSYAMHWVRQAPGQGLEWMGRISPRSGGTKYAQRFQGRVTITADESTSTAYMELSSLRSEDTAVYYCAREAVAGTHPQAGDFDLWGRGTLVTVSSASTKGPSVFPLAPSSKSTSGGTAALGCLVKDYFPEPVTVSWNSGALTSGVHTFPAVLQSSGLYSLSSVVTVPSSSLGTQTYICNVNHKPSNTKVDKKVEPKSCGGGGSGGGGSGGGGSGGGGSGGGGSGGGKTPDAMKAAMALEKKLNQALLDLHALGSARTDPHLCDFLETHFLDEEVKLIKKMGDHLTNLHRLGGPEAGLGEYLFERLTLRHD

biological target: T1, SARS-CoV-2 Spike on wild-type pseudotyped virus (PsV) (SARS-CoV-2); test: cell-based or functional assay

Binder	Median IC50
B1	0.1 µg/mL and 43 pM
B2	9.3 µg/mL and 4 nM
B3	0.89 µg/mL and 387 pM

biological target: T1, SARS-CoV-2 Spike on wild-type …; test: cell-based or functional assay; remark: another data set of the same source

Binder	IC50 SARS-CoV2 PsV (MB)
B1	0.1 µg/mL
B2	9.3 µg/mL
B3	0.89 µg/mL
